Experimental data published in patent US20070224633A1 (Pieris, published 2007).
Where two headings read alike, the source gives them in different places.

Legend:
[1] = biological target: T1, CD25-Fc (recombinant human IL-2 R alpha/Fc Chimera, R&D systems) (human, UniProt P01589 22-240); experiment: ELISA, CD25-Fc (2.5 µg/ml) captured via capture mAb, mutein dilution series, Streptactin-HRP detection; apparent KD from curve fit
T1 construct: extracellular domain; Bought chimera, held on the plate by the capture mAb; also called captured CD25-Fc; Fc part of the bought chimera not given; not described
T1 sequence (looked up): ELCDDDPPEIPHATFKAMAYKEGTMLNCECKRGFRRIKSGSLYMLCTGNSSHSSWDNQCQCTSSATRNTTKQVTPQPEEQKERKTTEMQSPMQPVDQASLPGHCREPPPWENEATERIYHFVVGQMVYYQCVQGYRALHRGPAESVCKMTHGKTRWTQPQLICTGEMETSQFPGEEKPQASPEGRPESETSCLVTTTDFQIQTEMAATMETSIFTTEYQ
Description: (§1) For this purpose, the wells of a black Fluotrac 600 microtiter plate (Greiner; 384 well) were coated with the capture mAb (Mouse Anti-Human IgG, Fcgamma Fragment Specific; Jackson ImmunoResearch) at a concentration of 5 μg/ml for 1 h at RT or OIN at 4° C. After a washing step and a subsequent blocking step with 3% w/v milk powder in PBST, CD25-Fc at a concentration of 5 μg/ml was added and incubated for one hour at RT. In parallel, the unrelated proteins capture mAb, HSA and FCS (Fetal Calf Serum; Invitrogen) were coated at concentrations of 5 μg/ml, 10 μl/ml and 10 μg/ml, respectively. In addition, human IgG Fc fragment (Accurate Chemical) was captured at a concentration of 5 μg/ml via the capture mAb coated at 5 μg/ml.
(§2) After another washing step, a dilution series of the mutein S67.7 C6 in PBST covering an appropriate concentration range was added to the captured CD25-Fc and the control proteins capture mAb, HSA, FCS and captured human IgG Fc fragment and incubated for 1 h at RT. Bound mutein was subsequently detected via Streptactin-HRP conjugate (MBA) and the fluorogenic HRP-substrate QuantaBlu™ (PIERCE) according to the respective manufacturers' recommendations. After an appropriate incubation time at room temperature, fluorescence was excited at a wavelength of 320 nm (±12.5 nm) and measured at 430 nm (±17.5 nm) in a GENiosPlus plate reader.
The assay was performed as described in Example 14, except that 2.5 μg/ml CD25-Fc and 2.5 μg/ml human IgG Fc fragment were used for capturing.

[2] = biological target: T2, human serum albumin (HSA, Sigma) (human, UniProt P02768 25-609); experiment: ELISA, control coated, mutein dilution series
T2 construct: Control protein; also called HAS; human serum albumine
T2 sequence (P02768 25-609 limits assumed): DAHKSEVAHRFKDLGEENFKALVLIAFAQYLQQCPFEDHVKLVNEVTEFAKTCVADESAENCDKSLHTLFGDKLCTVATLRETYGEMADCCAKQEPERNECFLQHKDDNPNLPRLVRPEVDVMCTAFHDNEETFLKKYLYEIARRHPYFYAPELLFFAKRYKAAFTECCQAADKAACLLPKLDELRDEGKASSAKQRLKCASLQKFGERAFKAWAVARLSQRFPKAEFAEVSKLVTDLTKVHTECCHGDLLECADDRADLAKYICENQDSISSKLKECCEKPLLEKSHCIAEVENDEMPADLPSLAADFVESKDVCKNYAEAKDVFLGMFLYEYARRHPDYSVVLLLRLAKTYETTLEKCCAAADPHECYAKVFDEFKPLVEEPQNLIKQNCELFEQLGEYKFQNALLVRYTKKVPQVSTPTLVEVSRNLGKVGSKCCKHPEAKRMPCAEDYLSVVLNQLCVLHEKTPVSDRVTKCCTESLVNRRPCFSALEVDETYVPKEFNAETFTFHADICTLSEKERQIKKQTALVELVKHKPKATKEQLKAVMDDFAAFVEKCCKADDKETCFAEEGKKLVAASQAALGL

[3] = biological target: T1, CD25-Fc (recombinant human IL-2 R …); experiment: ELISA, CD25-Fc (2.5 µg/ml) captured via capture mAb, mutein dilution series, Streptactin-HRP detection; apparent KD from curve fit; remark: listed apart in the source
Description: as §1
as §2, with “reader. […]” for “reader.”

hCD33-Fc (R&D) [4] = biological target: T3, hCD33-Fc (R&D) (human, UniProt P20138 18-259); experiment: ELISA on hCD33-Fc (1 µg/ml), mutein dilution series, Streptactin-HRP detection; apparent KD from curve fit
T3 construct: extracellular domain; Bought from R&D (printed as R&D Research and as R&D Systems); not shown: Fc part of the bought fusion protein; not described
Description: as §2, with “S76.1H10, obtained in Example 9,” for “S67.7 C6”, “rage” for “range”, “coated hCD22” for “captured CD25-Fc”, “hCD33-Fc, HSA” for “capture mAb, HSA, FCS”, “hIgG1” for “captured human IgG Fc fragment”, “(IBA)” for “(MBA)”
The targets hCD33-Fc (1 μg/ml, R&D Research) and hCD22-Fc (1 μg/ml, Peprtoech) were captured via the AffiniPure mouse anti-human IgG FcGamma fragment-specific antibody for 1 h at RT. Afterwards, the ELISA was performed with the TLPC muteins from Example 29 as described in Example 10.

hCD33-Fc (R&D) [5] = biological target: T3, hCD33-Fc (R&D); experiment: SPR (BIAcore X), hCD33-Fc (3000 RU) captured via anti-human IgG Fc antibody on CM5 chip, mutein injected at 10 µM
T3 sequence (P20138 18-259): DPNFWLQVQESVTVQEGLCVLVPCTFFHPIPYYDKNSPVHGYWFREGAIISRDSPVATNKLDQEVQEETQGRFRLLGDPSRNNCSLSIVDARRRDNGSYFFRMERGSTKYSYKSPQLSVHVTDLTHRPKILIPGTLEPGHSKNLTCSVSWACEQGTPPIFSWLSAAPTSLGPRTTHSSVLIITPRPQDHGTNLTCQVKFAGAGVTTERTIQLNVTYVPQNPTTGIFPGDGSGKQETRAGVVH
Description: (§3) 14000 response units (RU) AffiniPure mouse anti-human IgG Fc Gamma fragment-specific antibody (Jackson Immunoresearch) were coupled by amine coupling to a CM5 sensor chip (Biacore) according to the manufacturers' recommendations. 3000RU hCD33-Fc (R&D research) were captured to this surface by injecting 10 μl of a 0.2 mg/ml hCD33-Fc solution at a flow rate of 2 μl/min. BBS (10 mM HEPES, 150 mM NaCl, 2 mM EDTA, 0.005% v/v Tween pH 7.4) was used as running buffer. All samples were diluted in this running buffer. The TLPC muteins, obtained in example 29, were added to the hCD33-Fc captured surface by injection of a 40 μl sample with a 20 μl/min flow rate. The solutions of added TLPC mutein were 10 μM and 6.4 μM for S101.2 A20 and S101.2 O08, respectively. The surface of the chip was regenerated with 10 mM HCl followed by recoupling of hCD33-Fc before the next lipocalin mutein was measured. All measurements were performed on a BIAcore X apparatus.

[6] = biological target: T4, hCD22-Fc, captured via the anti-human IgG FcGamma fragment-specific antibody (human, UniProt P20273 20-687, limits assumed); experiment: ELISA, hCD22-Fc captured at 1 µg/ml, mutein dilution series
T4 construct: not shown: Fc part of the bought fusion protein; not described
T4 sequence (looked up): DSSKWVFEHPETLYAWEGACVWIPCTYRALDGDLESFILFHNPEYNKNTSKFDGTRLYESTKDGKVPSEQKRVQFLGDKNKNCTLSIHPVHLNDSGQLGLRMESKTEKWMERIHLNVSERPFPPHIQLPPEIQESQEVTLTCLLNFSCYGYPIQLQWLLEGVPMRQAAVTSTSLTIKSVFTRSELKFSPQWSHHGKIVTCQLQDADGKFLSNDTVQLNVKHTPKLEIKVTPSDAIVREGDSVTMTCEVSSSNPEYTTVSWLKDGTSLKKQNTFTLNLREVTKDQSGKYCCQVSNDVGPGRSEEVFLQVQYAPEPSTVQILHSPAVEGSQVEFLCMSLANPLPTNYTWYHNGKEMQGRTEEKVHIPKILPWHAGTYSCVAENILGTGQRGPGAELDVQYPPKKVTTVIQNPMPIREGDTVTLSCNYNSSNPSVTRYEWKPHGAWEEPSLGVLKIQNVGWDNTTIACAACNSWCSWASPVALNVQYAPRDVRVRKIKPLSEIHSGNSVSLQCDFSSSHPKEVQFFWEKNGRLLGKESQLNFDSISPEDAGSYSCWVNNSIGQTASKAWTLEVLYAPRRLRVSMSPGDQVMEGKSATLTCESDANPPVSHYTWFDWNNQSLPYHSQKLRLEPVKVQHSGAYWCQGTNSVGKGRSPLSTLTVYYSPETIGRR

hCD33-Fc (R&D) [7] = biological target: T3, hCD33-Fc (R&D); experiment: SPR (BIAcore X), hCD33-Fc (3000 RU) captured via anti-human IgG Fc antibody on CM5 chip, mutein injected at 6.4 µM
Description: as §3

hCD33-Fc (R&D) [8] = biological target: T3, hCD33-Fc (R&D); experiment: SPR (BIAcore X), hCD33-Fc (2000 RU) captured via anti-human IgG Fc antibody on CM5 chip, mutein injected at 5 µM
Description: as §3

Binder	Kd [1] [nM]	binding result [2]	Kd (hCD33-Fc (R&D) [4]) [nM]	binding result [6]	other results
TLPC mutein S99.4 F15 (designed binder, Made from pTLPC8, with C-terminal T7 tag and Strep-tag II; monomeric fractions were used; also called S99.4 P15) DGGVGRRGLSGTWYLKAMTVDRESPEMNLESVTPMTLTGLAGGDLEAKVTMLISGRCQEVKAVLEGTNELDKYTADGGKHVAYIIHPHVTDHLIFYSEGQLHGKPVRGVKLVGRDPKNNLEALEDFEKAAGARGLSTESILIPRQSETCSPGDASMTGGQQMGSAWSHPQFEK	22	no binding			
TLPC mutein S99.3 C13 (designed binder, Made from pTLPC8, with C-terminal T7 tag and Strep-tag II; monomeric fractions were used) DGGVGRRGLSGTWYLKAMTVDRESPEMNLESVTPMTLTGLAGGDLEAKVTMLISGRCQEVKAALEGTNELDKYTADGGKHVVYIIHPHVTDHLIFYSEGQLHGKPVRGVKLVGRDPKNNLEALEDFEKAAGARGLSTESILIPRQSETCSPGDASMTGGQQMGSAWSHPQFEK	307	no binding			
TLPC mutein S99.3 H24 (designed binder, Made from pTLPC8, with C-terminal T7 tag and Strep-tag II; monomeric fractions were used) DGGVGKRGLSGTWYLKAMTVDREFPEMDLESVTPMTLTGLAGGDLEAKVTMLISGRCQEVKAVLEGTNELDKYTADGGKHVAYIIHPHVTDHLIFYSEGQLHGKPVRGVKLVGRDPKNNLEALEDFEKAAGARGLSTESILIPRQSETCSPGDASMTGGQQMGSAWSHPQFEK	302	no binding			
TLPC mutein F92.8 M1.2 E15, dimeric fraction (designed binder, This is a homodimer from the size-exclusion column. The patent does not say whether the dimer is non-covalent or disulfide-linked., Same polypeptide as the monomer; this is the dimeric peak of the size exclusion column) chain 1: DGGVGRRGLSGTWYLKAMAVDREFPEMNLESVTPMTLTGLAGGDLGVKVTMLISGRCQEVKAVLEGTNELDKYTADGGKHVAYIIHSHVTDHLILYSEGQLHGKPVRGVKLVGRDPKNNLEALEDFEKAAGARGLSTESILIPRQSETCSPGSAWSHPQFEK chain 2: DGGVGRRGLSGTWYLKAMAVDREFPEMNLESVTPMTLTGLAGGDLGVKVTMLISGRCQEVKAVLEGTNELDKYTADGGKHVAYIIHSHVTDHLILYSEGQLHGKPVRGVKLVGRDPKNNLEALEDFEKAAGARGLSTESILIPRQSETCSPGSAWSHPQFEK		no binding			Kd [3]: 6 nM
TLPC mutein S101.2 A20 (designed binder, Made from pTLPC14, with N-terminal T7-tag and C-terminal Strep-tag II; also called CD33 S101.2 A20) DASMTGGQQMGASDEEIQDVPGTWYLKAMTVVHGVHDLFLESVTPMTLTTLEGGNLEAKVTMFGNGRCQEVNAVLEKTDEPGKYTADGGNHVAYIIRSHVKDHYIFYSEGEHMGWTVRGVQLVGRDPKNNLEALEDFEKAAGARGLSTESILIPRQSETCSPGSAWSHPQFEK			5.2	no binding	Kd (hCD33-Fc (R&D) [5]): 87 nM; koff (hCD33-Fc (R&D) [5]): 0.002 s⁻¹; kon (hCD33-Fc (R&D) [5]): 23000 M⁻¹ s⁻¹
TLPC mutein S101.2 O08, monomeric fraction (designed binder, Made from pTLPC14, with N-terminal T7-tag and C-terminal Strep-tag II; also called S101.2 008; CD33 S101.2 O08 (monomer)) DASMTGGQQMGASDEEIQDVPGTWYLKAMTVPDLSLTLQATAESVTPMTLTTLEGGNLEAKVTMFGYGRCQEVKAVLEKTDEPGKYTADGGNHVAYIIRSHVKDHYIFYSEGELMGVLVRGVQLVGRDPKNNLEALEDFEKAAGARGLSTESILIPRQSETCSPGSAWSHPQFEK			187	no binding	
TLPC mutein S101.2 O08, dimeric fraction (designed binder, Same polypeptide as the monomer; this is the dimeric fraction of the size exclusion chromatography; also called CD33 S101.2 O08 (dimer)) DASMTGGQQMGASDEEIQDVPGTWYLKAMTVPDLSLTLQATAESVTPMTLTTLEGGNLEAKVTMFGYGRCQEVKAVLEKTDEPGKYTADGGNHVAYIIRSHVKDHYIFYSEGELMGVLVRGVQLVGRDPKNNLEALEDFEKAAGARGLSTESILIPRQSETCSPGSAWSHPQFEK			83	no binding	
TLPC mutein S101.2 O08 (BIAcore; fraction not stated) (designed binder, Same polypeptide as m36 and m37; also called CD33 S101.2 O08; S101.2 008) DASMTGGQQMGASDEEIQDVPGTWYLKAMTVPDLSLTLQATAESVTPMTLTTLEGGNLEAKVTMFGYGRCQEVKAVLEKTDEPGKYTADGGNHVAYIIRSHVKDHYIFYSEGELMGVLVRGVQLVGRDPKNNLEALEDFEKAAGARGLSTESILIPRQSETCSPGSAWSHPQFEK					Kd (hCD33-Fc (R&D) [7]): 146 nM; koff (hCD33-Fc (R&D) [7]): 0.0019 s⁻¹; kon (hCD33-Fc (R&D) [7]): 13000 M⁻¹ s⁻¹
TLPC mutein S100.1 I08, dimeric fraction (designed binder, this is the dimeric fraction of the size exclusion chromatography; also called CD33 S100.1 I08 (dimer); CD33 S100.1 I08) DASMTGGQQMGASDEEIQDVPGTWYLKAMTVGSGSICTCSESVTPMTLTTLEGGNLEAKVTMVVRGRCQEVKAVLEKTDEPGKYTADGGNHVAYIIRSHVKDHYIFYSEGEVMGLPVRGVQLVGRDPKNNLEALEDFEKAAGARGLSTESILIPRQSETCSPGSAWSHPQFEK				no binding	Kd (hCD33-Fc (R&D) [8]): 57 nM; koff (hCD33-Fc (R&D) [8]): 0.00085 s⁻¹; kon (hCD33-Fc (R&D) [8]): 15000 M⁻¹ s⁻¹
TLPC mutein S100.1 I08, monomeric fraction (designed binder, They are in wild-type Tlpc numbering, not counted on the entry; also called CD33 S100.1 I08 (monomer)) DASMTGGQQMGASDEEIQDVPGTWYLKAMTVGSGSICTCSESVTPMTLTTLEGGNLEAKVTMVVRGRCQEVKAVLEKTDEPGKYTADGGNHVAYIIRSHVKDHYIFYSEGEVMGLPVRGVQLVGRDPKNNLEALEDFEKAAGARGLSTESILIPRQSETCSPGSAWSHPQFEK				no binding	
